In PubChem BioAssay AID488969 (Vanderbilt High Throughput Screening Facility, 2010):
In all, about 110,000 compounds were measured (“z-score”: median about -0.1, highest 2% from about 2 on). Some of the results follow.

Biological target: Metabotropic glutamate receptor 8 (Rattus norvegicus) (UniProt P70579)
Experiment: rat mGluR8 modulators via GIRK flux, primary screen, cell-based, thallium flux, HTS (AID 488969)
Details: HEK293 rat mGluR8, GIRK (G protein-gated inwardly rectifying potassium channel) thallium flux, FluoZin2; at 10 µM; stronger effect = higher value; submaximal glutamate (EC20) added with thallium

Chain of UniProt P70579 (P70579 whole entry, looked up): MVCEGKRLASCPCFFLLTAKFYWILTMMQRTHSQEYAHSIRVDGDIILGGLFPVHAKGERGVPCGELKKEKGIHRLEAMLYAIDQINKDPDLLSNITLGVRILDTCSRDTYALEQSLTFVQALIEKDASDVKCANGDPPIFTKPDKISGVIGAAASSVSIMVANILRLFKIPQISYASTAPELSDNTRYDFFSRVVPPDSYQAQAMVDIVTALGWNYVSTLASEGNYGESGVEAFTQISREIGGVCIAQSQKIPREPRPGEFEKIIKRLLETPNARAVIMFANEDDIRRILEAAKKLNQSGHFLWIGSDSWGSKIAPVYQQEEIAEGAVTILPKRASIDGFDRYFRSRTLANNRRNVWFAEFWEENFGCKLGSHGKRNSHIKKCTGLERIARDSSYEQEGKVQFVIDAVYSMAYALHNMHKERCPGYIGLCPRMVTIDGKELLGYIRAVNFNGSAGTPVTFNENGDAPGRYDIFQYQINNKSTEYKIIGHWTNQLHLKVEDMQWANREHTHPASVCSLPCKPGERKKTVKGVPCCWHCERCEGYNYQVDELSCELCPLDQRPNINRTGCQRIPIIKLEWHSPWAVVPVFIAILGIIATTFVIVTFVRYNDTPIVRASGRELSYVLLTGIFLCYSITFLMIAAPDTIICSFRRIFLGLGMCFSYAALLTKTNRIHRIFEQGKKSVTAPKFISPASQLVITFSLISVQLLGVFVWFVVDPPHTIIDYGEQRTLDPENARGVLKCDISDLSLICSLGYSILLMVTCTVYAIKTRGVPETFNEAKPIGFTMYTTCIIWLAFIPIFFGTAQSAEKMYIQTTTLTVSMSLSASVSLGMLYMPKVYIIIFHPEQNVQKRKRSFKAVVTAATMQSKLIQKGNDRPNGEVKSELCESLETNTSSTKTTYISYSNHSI

| Compound | z-score |
| --- | --- |
| O=C(Nc1ccccc1)c1ccncc1 | -0.109 |
| Clc1ccc(C2=C3CCCCn4c(-c5ccccc5)c[n+](c43)C2)cc1 | 0.498 |
| COC(=O)[C@H](CC(C)C)NC(=O)N1CCN(c2cccc(C(F)(F)F)c2)CC1 | 0.055 |
| Cc1cc(C(=O)CSc2ncccn2)c(C)n1-c1cccc(F)c1 | -0.391 |
| COc1ccc(CN/C=C2\CCCCC2=O)cc1 | -0.157 |
| O=C1CC(C(=O)NC2CCCCC2)C(c2ccccc2)O1 (stereo not drawn) | -0.503 |
| Cc1cc(OCC(=O)Nc2ccncc2)cc(C)c1Br | -0.426 |
| COC(=O)C(C)NC(=O)c1ccc(C(C)(C)C)cc1 (stereo not drawn) | -0.275 |
| Cc1ccc(S(=O)(=O)N2C=CC(C(F)(F)F)=NCC2)cc1 | -0.16 |
| Cn1c(=O)c(-c2ccccc2N)nc2ccccc21 | -0.598 |
| Oc1ccccc1Oc1c(F)c(F)nc(N2CCCC2)c1F | -0.2 |
| COc1ccccc1-n1c(CNC(=O)c2ccc(S(=O)(=O)N3CCOCC3)cc2)n[nH]c1=S | 0.224 |
| O=C(COc1ccc(F)cc1)Nc1nccs1 | -0.265 |
| CN(C)C(=O)NCc1ccc(S(N)(=O)=O)cc1 | 0.693 |
| CC(NC(=O)C(=O)NCCC1=CCCCC1)c1ccccc1 (stereo not drawn) | -0.313 |
| CSc1nnc2c(n1)c(C)nn2-c1ccc(C)cc1 | -0.274 |
| N#Cc1c(-c2ccccc2)nc(SCC(=O)N(c2ccccc2)c2ccccc2)[nH]c1=O | -0.79 |
| O=C(Cn1cnc2c(cnn2-c2ccc(F)cc2)c1=O)NCc1ccco1 | -0.724 |
| Cc1cc(C(C)(C)C)oc1C(=O)N(CC(=O)NC1CCCC1)Cc1ccccc1 | -0.175 |
| CCOC(=O)C1=C(N)N2C(=O)C(C)SC2=C(C(=O)OC)C1c1ccccc1OC (stereo not drawn) | -0.995 |
| O=S(=O)(c1ccc(Cl)c(Cl)c1)c1snnc1-c1ccccc1 | 0.0864 |
| CCOC(=O)C1(CC)NC(c2ccco2)C2C(=O)N(C)C(=O)C21 (stereo not drawn) | 0.134 |
| C=CCOc1c(Br)cc(CNc2ccc(NC(=O)C(C)C)cc2)cc1OCC | -0.102 |
| O=C(NC1CCCC1)c1cc(Cl)ccc1[N+](=O)[O-] | 0.0599 |
| CC(C)COc1ccc(S(=O)(=O)NNC(=O)c2cc3ccccc3o2)cc1 | -0.0828 |

| Compound | z-score |
| --- | --- |
| C#CC(C)(CC)NC(=O)Cn1nnc(-c2ccc(S(C)(=O)=O)cc2)n1 (stereo not drawn) | 0.167 |
| Cc1ccc(C(=O)Nc2ccc3c(c2)OCO3)cc1S(=O)(=O)N1CCCCC1 | -0.384 |
| COc1ccc(-c2cn(-c3ccc(OC)cc3)c(=S)[nH]2)cc1 | 0.277 |
| Cc1ccc2occ(C3N[C@H](C(=O)O)CS3)c(=O)c2c1 (stereo partly drawn) | -1.32 |
| O=C(CCn1cnc(-c2ccccc2)c1-c1ccccc1)N/N=C/c1ccccc1O | -0.833 |
| CCC(CC)C1C(C#N)=C(N)Oc2cc(C)oc(=O)c21 (stereo not drawn) | -2.1 |
| CCOC(=O)C1CCN(c2c(N(C)Cc3ccco3)c(=O)c2=O)CC1 | 0.436 |
| CN(C)S(=O)(=O)N(CC(=O)N1CCOCC1)c1ccccc1 | 0.815 |
| CN1CC(=O)N(CC(=O)Nc2ccc(N(C)C)cc2)c2ccccc2C1=O | 0.128 |
| Cc1ccc(C(=O)COC(=O)c2c(C)cc(=O)oc2C)cc1[N+](=O)[O-] | -0.113 |
| CCc1c(O)cc(=O)n(-c2ccccc2)c1-c1ccccc1 | -0.775 |
| Cc1noc(C)c1C(=O)OCC(=O)NC(c1ccccc1)c1ccccc1 | -0.347 |
| COc1ccc(CNc2nc(C)c([N+](=O)[O-])c(C)c2C#N)cc1 | 0.0989 |
| COc1ccc(C2C(C(=O)N3CCCCC3)CC(=O)N2c2ccc(OC)cc2)cc1 (stereo not drawn) | -0.175 |
| O=C(c1c(F)c(F)c(F)c(F)c1F)N1CCc2ccccc21 | -0.447 |
| C=CCNC(=O)C1CC(=O)N(c2ccc(OCC(=O)NCc3ccccc3)cc2)C1 (stereo not drawn) | -0.104 |
| CCC(=O)c1ccccc1OCCN1C(=O)NC(C)(C)C1=O | -0.129 |
| CNC(=O)CSc1nnc(-c2ccco2)n1-c1ccc(C)cc1 | 0.0101 |
| CCOc1ccccc1NC(=O)C1CC(=O)n2ncnc2N1 (stereo not drawn) | -0.15 |
| CCn1c(CCn2ccnc2C)n[nH]c1=S | 0.253 |
| Cc1c(C(=O)O)c(-c2ccccc2)nn1-c1ccccc1 | 0.22 |
| CCCNNC(=O)C(O)(c1ccccc1)c1ccccc1 | 0.449 |
| COc1ccc(C2N(C(=O)c3ccccc3)CCN2C(=O)c2ccccc2)cc1 | 0.273 |
| COC(=O)C1(S(=O)(=O)C2(C(=O)OC)CCCC2)CCCC1 | 0.165 |
| COc1ccc(C2(C(=O)NCCN3CCOCC3)CCOCC2)cc1 | 0.206 |

| Compound | z-score |
| --- | --- |
| COc1ccc(C2=NOC3(CC(=O)N(c4ccc(C)cc4)C3=O)C2)cc1 (stereo not drawn) | -0.444 |
| COc1ccc(NC(=O)CN2C(=O)C(C)Oc3ccccc32)cc1 (stereo not drawn) | -0.12 |
| O=C(COc1ccc(F)cc1)Nc1nnc(-c2ccncc2)s1 | -0.283 |
| O=C(NNC1=NCCC1)c1ccc(Br)cc1 | -0.0333 |
| CC(=O)Nc1ccc(S(=O)(=O)NCCSCc2ccccc2Cl)cc1 | -0.178 |
| C=CCSc1nc(N)c(C(=O)Nc2ccccc2C)cc1C(N)=O | -0.41 |
| N=c1sccn1CC(=O)Nc1ccccc1Cc1ccccc1 | 0.385 |
| Cc1ccc(S(=O)(=O)NCC(C)NS(C)(=O)=O)cc1 (stereo not drawn) | -0.186 |
| CCC(C)(C)C(=O)Nc1ccc(OC)cc1[N+](=O)[O-] | -0.0898 |
| COC(=O)c1ccccc1NC(=O)CSc1nnc(CNS(=O)(=O)c2ccc(C)cc2)n1C | -1.17 |
| CCc1nc(NCC2CCCO2)c(C#N)c2c1COC(C)(C)C2 (stereo not drawn) | -0.743 |
| Cc1ccc(C2(c3ccc(C)cc3)NC(=O)N(Cc3c(C)noc3C)C2=O)cc1 | 0.501 |
| CC(C)c1ccc(NC(=S)NCc2cccs2)cc1 | -0.117 |
| O=C(CCC(=O)N(c1ccc(F)cc1)C(C(=O)NC1CCCC1)c1ccncc1)Nc1cccnc1 (stereo not drawn) | 0.0842 |
| O/N=C(/CCc1ccccc1)C1(O)CCCCC1 | 0.131 |
| COc1ccccc1C/C(N)=N/OC(=O)COc1ccc(C)cc1C | -0.34 |
| CCNc1nc(NCC)nc(Nn2cnnc2)n1 | -0.325 |
| COC(=O)CCN(c1ccccc1)S(=O)(=O)c1ccc(OC)cc1 | -0.159 |
| Cn1c(=O)cc(-c2ccccc2)c2ccccc21 | -0.748 |
| O=C(CCC(=O)NNC(=O)COc1ccccc1)NCc1ccccc1 | -0.0104 |
| CS(=O)(=O)c1ccc2nc(NC(=O)c3ccco3)sc2c1 | 0.66 |
| O=C(Nc1ccc(-c2nc3ccccc3s2)cc1)C1=COCCO1 | -0.24 |
| O=S(=O)(c1cc(Cl)ccc1Cl)N1CCCC1 | -0.172 |
